PubChem BioAssay AID1508624 (National Center for Advancing Translational Sciences (NCATS), 2021)
In all, about 48,000 compounds went through this assay and about 120 (0.25%) were called active. About 4% were inconclusive and are not listed. Calls follow the shape of the dose curve; as a rule, active = well fitted activation curve with a large enough effect; inconclusive = small, poorly fitted or top-dose-only effect, or another doubt; inactive = no such curve, though single readings can be large or run the other way. The list shows a part of the results.

Experiment: Primary qHTS for Identification of Small Molecule Activators of Huntingtin-Antisense Promoter Activity; also: nearly all actives have a fitted effect of over 55% in size
Settings: HEK293 HTT-AS promoter firefly luciferase reporter, 24 h; series mostly up to 57.5 µM; activity change, positive = activation: at the top concentration
How it was run: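 Quantitative HTS used concentration series of up to 57.5 uM final on HEK293 luciferase reporter cells, 24 h at 37 degrees C. Readout was Dual-Glo firefly luminescence.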

Activity change, positive = activation, inactive:
CCc1ccccc1Nc1nn2c(=O)c3ccc(C(=O)Nc4cc(C)cc(C)c4)cc3nc2s1 -14.1%, CCOC(=O)c1cccc(NC(=O)CCCn2c(C)c3cnn(-c4ccccc4)c(=O)c3c2C)c1 -20.1%, COc1cc(C2CC(=O)Nc3c2c(=O)n(C)c(=O)n3C)cc(OC)c1OC (configuration not stated) 4.09%, Cc1cccc(-n2ncc(C(=O)N3CCC(C)CC3)c2C2CCN(C(=O)OC(C)(C)C)CC2)c1 3.48%, CCCCn1c(CNC(=O)c2ccc(OC)cc2)nnc1SCC(=O)Nc1ccccc1 -29.7%, Cc1ccc(CNC(=O)CCC(=O)N2CC(C)Sc3ccccc32)cc1 (configuration not stated) -0.92%, COc1ccc(-c2cc(C(C)=O)c(C)n2CCC(=O)NCc2ccc(F)cc2)cc1 -12.3%, Cc1ccc(NC(=O)c2cc3c(=O)[nH]c4ccccc4c3n2C)cc1F -13.3%, COc1ccc(CCNC(=O)NCc2noc3ccc(C)cc23)c(OC)c1 -26.4%, CCN(CC)c1cc2c(cc1F)c(=O)c(S(=O)(=O)c1ccccc1)cn2Cc1ccccc1 -22.8%, CC[C@]12CCCN3CCc4c(n(c5ccccc45)C(=O)C1)[C@@H]32 -22.7%, CCOC(=O)c1c(S(=O)(=O)NCC(=O)N2CCN(c3ccccc3OC)CC2)c(C)n(C)c1C -3.17%, CC(=O)c1cccc(NS(=O)(=O)c2c(C)nc3sc(C)cn3c2=O)c1 -30.1%, CCOc1ccc(S(=O)(=O)N2CCN(c3ccccc3)CC2)cc1C(N)=O -6.59%, CC(C)N(C(=O)Cn1cc(S(=O)(=O)Cc2ccc(C(F)(F)F)cc2)c2ccccc21)C(C)C -24.2%, Cc1ccc(Nc2c(-c3ccccc3O)nc3ccc(Br)cn23)cc1 2.34%, COc1ccc2c(Sc3ccc(Cl)cc3)c(C(=O)NCCCN3CCCCC3)[nH]c2c1 -8.54%, CCOc1ccc(-n2c(=O)c3c(C)c(C(=O)N(C)C)sc3n(CC(=O)Nc3c(C)cc(C)cc3C)c2=O)cc1 -11.4%, Cc1cccc(NC(=O)CSc2nc3c([nH]c4ccccc43)c(=O)n2C)c1 -26%, Cc1ccc(CN(C(=O)COc2ccc(C)c(C)c2)C2CCS(=O)(=O)C2)o1 (configuration not stated) -14.7%, COc1ccc(S(=O)(=O)Nc2cc(-c3cn4ccccc4n3)ccc2C)cc1 -13.2%, Cc1nn(C)c2c1c(C(F)(F)F)cc(=O)n2CC(=O)NCc1ccccc1Cl -25.8%, Cc1ccc(CC(=O)Nc2c(C(=O)N3CCN(c4ccccc4F)CC3)oc3ccccc23)cc1 -21.6%, CCc1cccc(CC)c1NC1=NS(=O)(=O)c2ccccc21 7.04%, CCOc1ccccc1NC(=O)C(C)Sc1nc2c(c(=O)[nH]1)CCCC2 (configuration not stated) -11%, Cc1ccc(NS(=O)(=O)c2ccc3c(c2)NC(=O)CCS3)c(Br)c1 -33.6%, CCOC(=O)c1ccccc1NC(=O)CCc1c(C)nc2ncnn2c1C -5.03%, CCOCCCNC(=O)CCc1nnc2ccc(N3CCN(c4cccc(OC)c4)CC3)nn12 3.55%, Cc1ccc(NCc2nnc3n2CCCCC3)cc1Cl 8.16%, CN1C(C(=O)Nc2ccc(F)cc2F)=CC(c2cccs2)=NS1(=O)=O -26.7%, CCn1nc(-c2ccccc2)c(-c2ccccc2)c(C(=O)OCCOC)c1=O -22.4%, Cc1ccc2c(=O)cc(C(=O)Nc3nnc(C)s3)oc2c1 9.81% [at 11.5 µM, percent change from vehicle, -100% = no light], CCOC(=O)C1=C(CN2CCC(C(=O)OCC)CC2)NC(=O)NC1c1ccc(Cl)cc1 (configuration not stated) -39%, Cc1oc(-c2ccccc2)nc1CNC(=O)Nc1ccccc1 -20.1%, CCc1cccc(C)c1NC(=O)c1cnn(-c2ccc(F)cc2)c1-n1cccc1 -30.6%, CSc1nn(Cc2cccc(F)c2)c(N(C(C)=O)C(C)=O)c1S(=O)(=O)c1ccccc1 -32.4%, Cc1cccc(S(=O)(=O)c2cn(Cc3ccccc3)c3cc(N4CCCC(C)C4)c(F)cc3c2=O)c1 (configuration not stated) -1.97%, Clc1ccc(CSc2nc(NCCc3ccccc3)c3ccccc3n2)cc1 -15%, Cc1cc(NC(=O)C2CCCN(S(=O)(=O)c3cccc4nonc34)C2)ccc1Br (configuration not stated) -4.81%, COc1ccc(OC)c(CNCc2c(C(=O)O)n(Cc3ccccc3)c3cc(OC)ccc23)c1 -15.6%, CCC(=O)N1CCc2cc(S(=O)(=O)NC(CC(C)C)C(=O)Nc3ccc(CC)cc3)ccc21 (configuration not stated) -3.99%, O=C1Nc2ccccc2Oc2cc(Oc3ccc(Cl)cc3)ccc21 -22.1%, O=C(CN1N=C(c2ccc(Cl)cc2)CCC1=O)NCc1ccc(F)cc1 -13.3%, Cc1ccc(NC(=O)Cn2c(=O)oc3cc(S(=O)(=O)N4CCCC4)ccc32)cc1F -32.9%, COc1cccc(C2C(C(=O)Nc3cccnc3)=C(C)Nc3nc(SCc4ccccc4)nn32)c1 (configuration not stated) -4.99%, CCOC(=O)c1ccc(NC(=O)C2CCCN(c3ncnc4onc(C)c34)C2)cc1 (configuration not stated) -31.2%, Cc1nc2ccc(S(=O)(=O)CCC(=O)Nc3ccccc3C)cc2s1 -6.98%, O=C(CC1NCCNC1=O)Nc1cccc(F)c1 (configuration not stated) -6.83%, Cc1ccc2ncc3c(-c4ccccc4)nn(CC(=O)NC4CCCCC4)c3c2c1 -12%, COc1ccccc1N1CCN(CCCNC(=O)Cn2ncc3c([nH]c4ccccc43)c2=O)CC1 -14.5%, COc1ccc(NC(=O)CSC2=Nc3ccccc3C3=NC(CCC(=O)NCc4ccco4)C(=O)N23)cc1 (configuration not stated) -9.04%, COc1ccccc1CNC(=O)C(=O)NCC(c1ccc2c(c1)OCO2)N1CCOCC1 (configuration not stated) -11.4%, CCc1ccc(CNc2nc3nc(C)c(Cc4ccccc4)c(=O)n3[nH]2)cc1 -2.4%, CCc1ccc(-c2nc(SCC(=O)NCCOC)c(-c3ccc(C)cc3)[nH]2)cc1 -21.9%, CCc1ccc(CN2CCc3nc(Nc4ccc5c(c4)OCCO5)ncc3C2)cc1 -16.6%, COc1ccc(Nc2nnc(-c3ccc(C)c(S(N)(=O)=O)c3)c3ccccc23)cc1 -39.4%, CC(=O)c1cccc(NC(=O)C2=CC(c3ccco3)=NS(=O)(=O)N2C)c1 -1.74%, CCC(CC)C(=O)Nc1ccccc1C(=O)OCc1cc(=O)n2nc(C3CCCCC3)sc2n1 -18.7%, COc1ccc(Cl)cc1N(C)C(=O)Cn1cnc2sc(C)c(S(=O)(=O)N3CCN(c4ncccn4)CC3)c2c1=O -11.7%, CCOc1ccc(CNC(=O)Cn2ncc3c(=O)oc4ccc(C)cc4c32)cc1 -11.5%, Cc1ccc(C)c(CN2C(=O)c3ccccc3S(=O)(=O)c3ccc(C(=O)N4CCOCC4)cc32)c1 -31.6%, COc1ccc(C(=O)N2CCCCC2CCN2CCCCC2)cc1 (configuration not stated) -4.06%, COc1ccc(Cl)cc1NC(=O)[C@H]1O[C@@H]2OC(C)(C)O[C@@H]2[C@H]2OC(C)(C)O[C@H]21 -8.16%, O=S(=O)(c1cccs1)N1CCN(c2ccc(Cl)cc2)CC1 0.955%, Cc1ccc(-c2cc(C(F)(F)F)n3nc(C(=O)Nc4ccc(C#N)cc4)cc3n2)cc1 -3.49% [at 11.5 µM, percent change from vehicle, -100% = no light], CCOc1ccccc1CNC(=O)CCCN1C(=O)CCn2nc(-c3cccn3C)cc21 -6.86%, Cc1ccc(CNC(=O)C2CCN(S(=O)(=O)c3ccc4c(c3)oc(=O)n4C)CC2)cc1 -6.11%, CCc1ccc(-n2nc(C)c3c(C)cc(=O)n(CC(=O)Nc4ccc(OC)c(OC)c4)c32)cc1 8.53%, CCOC(=O)c1c(C)[nH]c(C)c1S(=O)(=O)N1CCCC(C(=O)N2CCN(c3cc(C)ccc3C)CC2)C1 (configuration not stated) -50.2%, O=C(CNS(=O)(=O)c1ccc(Br)s1)N1CCN(c2ccccc2F)CC1 -20.4%, Cc1nn(CC(=O)N2CCN(c3ccccc3)CC2)c(=O)c2cccn12 -4.85%, Cc1ccc(-c2nc3c(cnn3-c3ccccc3)c(=O)n2-c2ccc(Cl)cc2)cc1 -14.7%, COc1cccc(OC)c1C(=O)Nc1ccc2c(c1)CCCN2S(=O)(=O)c1ccc(C)cc1 -22%, O=C(COCc1cc(-c2ccco2)on1)Nc1ccc(OC(F)(F)F)cc1 -6.72%, Cc1oc(-c2ccc(Cl)cc2)nc1Cn1c(=O)cc(-c2ccccc2)c2c(C)nn(C)c21 -25.1%, CCN1CCN(C(=O)c2ccc3c(c2)N(Cc2cc(C)ccc2C)C(=O)c2ccccc2S3=O)CC1 (configuration not stated) -14.2%, COc1ccc(NC(=O)Cn2cc(C(=O)C3CC3)c3ccccc32)cc1 -11.7%, COC(=O)c1cc(NC(=O)CN(c2ccccc2)S(=O)(=O)N(C)C)ccc1Cl -26%, NS(=O)(=O)c1ccc(CCNc2nc3c(-c4cccc(F)c4)nnn3c3ccc(Cl)cc23)cc1 15.9%, CCOc1ccccc1NC(=O)Cn1nnc2sc3c(c2c1=O)CCC(C(C)(C)C)C3 (configuration not stated) -0.0682%, Cc1ccc(CSc2nc3ccc(NC(=O)COc4ccccc4F)cc3s2)cc1 -5.95%, CCN(CC)CCCNC(=O)Cn1c(-c2cccs2)cc2cc(Cl)ccc21 -24.5%, O=C(CCCCn1c(=O)[nH]c2ccsc2c1=O)N1CCN(c2cccc(Cl)c2)CC1 -35.6%, CCCCN(CCCC)S(=O)(=O)c1ccc2oc(C(=O)NCc3ccccc3)c(C)c2c1 -2.51%, CCOC(=O)c1c(C)oc2c(Cl)cc(NS(=O)(=O)c3ccc(Cl)c(C)c3)cc12 -12.9%, Cc1cc(C)c(/C=C/c2onc(C)c2S(=O)(=O)N2CCC(C(=O)NCc3ccco3)CC2)c(C)c1 -25%, CCOC(=O)N1CCN(C(=O)CN(c2ccc(C)cc2C)S(=O)(=O)c2ccccc2)CC1 -11.7%, CCOC(=O)c1c(C)[nH]c(C)c1S(=O)(=O)N(C)CC(=O)N1CCN(c2ccccc2OC)CC1 -13.1%, O=C(CN1C(=O)C2(SCC(=O)N2c2cccc(Cl)c2)c2ccccc21)NC1CCCCC1 (configuration not stated) -16.2%, CCCNC(=O)CN1C(=O)c2cccnc2Sc2ccccc21 -9.92%, Cc1cccc(NC(=O)CSc2nc(C)c(Cc3ccccc3)c(=O)[nH]2)c1 -23.3%, C[C@@H]1CN(c2c(F)c(N)c3c(=O)c(C(=O)O)cn(C4CC4)c3c2F)C[C@H](C)N1
